{"source": "PubChem BioAssay AID743279", "about": "(National Center for Advancing Translational Sciences (NCATS), 2014)", "note": "In all, about 360,000 compounds went through this assay and about 17,000 (4.7%) were called active. The shares of active, inactive and inconclusive entries below differ from those in the screen. Cut-off read from the data, not from the text of the source: active = activity change below about -50%; inconclusive = mostly about -30% to -49%; inactive = weaker than that. % is set by controls: 0 for no effect and ±100 for the full control effect."}
{"assay": "qHTS for Inhibitors of Inflammasome Signaling: IL-1-beta AlphaLISA Primary Screen", "conditions": "THP-1 LPS/ATP IL-1B secretion, 16 h; at 57.5 µM, stronger effect = lower value", "how_it_was_run": "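Secreted IL-1B measured by AlphaLISA bead assay after 16 h compound exposure of THP-1 cells; compounds (final up to 57.5 uM) added 1 h before LPS (250 ng/mL) and ATP (1.25 mM) stimulation; lower signal means less secretion.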"}
{"smiles": "O=C(/C=C/c1cccc(Cl)c1)Nn1c(-c2cccs2)nc2ccccc2c1=O", "activity change": "active: -54.9%"}
{"smiles": "CC(=O)c1ccc(NC(=O)CCc2ccc(C)o2)cc1", "activity change": "inconclusive: -34.4%"}
{"smiles": "O=C(CN1CC[C@@]2(O)CCCC[C@H]2[C@@H]1c1ccc(F)cc1)NCc1ccco1", "activity change": "inconclusive: -30.8%"}
{"smiles": "CC(=O)NC(c1cccc(F)c1)c1nc(-c2ccccc2)cs1", "note": "(stereo not drawn)", "activity change": "inactive: -2.31%"}
{"smiles": "Clc1ccc(N2CCN(/N=C/c3ccncc3)CC2)cc1", "activity change": "inconclusive: -30.4%"}
{"smiles": "CCC(=O)Nc1ccc2oc(-c3ccccc3Br)nc2c1", "activity change": "inconclusive: -35.8%"}
{"smiles": "CC(C)(C)c1ccc(Cn2cnc(-c3ccc([N+](=O)[O-])cc3)c2)cc1", "activity change": "inconclusive: -34.3%"}
{"smiles": "Cc1ccc(SCCc2cc[n+](CC(=O)c3ccccc3)cc2)cc1", "activity change": "active: -151%"}
{"smiles": "COc1ccccc1CCC(=O)Oc1ccc(C#N)cc1OC", "activity change": "inactive: 3.13%"}
{"smiles": "CCc1ccccc1NC(=O)NCc1cccnc1", "activity change": "inactive: 23.8%"}
{"smiles": "Cc1cccc2c(SCC(=O)NCC3CCCO3)nc(-c3ccc(F)cc3)nc12", "note": "(stereo not drawn)", "activity change": "inactive: 0%"}
{"smiles": "CCC(=O)c1cc2c(C)cc(=O)oc2c(C)c1OC(C)=O", "activity change": "inconclusive: -49.2%"}
{"smiles": "Cc1ccc(Cl)cc1NC(=O)C(NS(=O)(=O)c1cccs1)c1ccccc1", "note": "(stereo not drawn)", "activity change": "inconclusive: -31.1%"}
{"smiles": "CCOC(=O)c1cnc(SC)nc1Sc1cc(Cl)ccc1Cl", "activity change": "inactive: 0%"}
{"smiles": "O=C(CCCc1c[nH]c2ccccc12)NCc1cccs1", "activity change": "inconclusive: -38.3%"}
{"smiles": "CCN(Cc1ccccc1OC)CC1CCCN(CCc2cccc(OC)c2)C1", "note": "(stereo not drawn)", "activity change": "inconclusive: -33.3%"}
{"smiles": "O=C(c1ccco1)N1N=C(c2ccc(Cl)cc2)CC1(O)C(F)(F)F", "note": "(stereo not drawn)", "activity change": "inconclusive: -48.9%"}
{"smiles": "Cc1ccccc1NS(=O)(=O)c1cc2c3c(c1)C(C)C(=O)N3CCC2", "note": "(stereo not drawn)", "activity change": "inactive: 4.92%"}
{"smiles": "Cc1c(Cl)c([N+](=O)[O-])nn1Cc1ccc(C(=O)Nc2ccc(Cl)cn2)o1", "activity change": "inactive: -10.8%"}
{"smiles": "CN1CCN(C(=S)NCCc2ccccc2)CC1", "activity change": "inactive: 8.22%"}
{"smiles": "Cc1onc(-c2ccccc2Cl)c1C(=O)Oc1cc(N)n(S(=O)(=O)c2ccc(F)cc2)n1", "activity change": "inactive: -7.08%"}
{"smiles": "CCCOc1ccc(-c2nc(C#N)c(NCCCn3ccnc3)o2)cc1", "activity change": "inconclusive: -42.7%"}
{"smiles": "Cn1c(=O)c2c(nc(NCc3ccccc3)n2C)n(C)c1=O", "activity change": "inactive: 17.3%"}
{"smiles": "Fc1ccc(C(CCNCc2cccs2)c2ccco2)cc1", "note": "(stereo not drawn)", "activity change": "inconclusive: -47.9%"}
{"smiles": "CN(C)C(=O)C[C@@H]1CC[C@@H](NC(=O)C2CCC2)[C@@H](CO)O1", "activity change": "inactive: 16.5%"}
{"smiles": "Oc1ccc(Cl)cc1CNCc1ccc(F)c(F)c1", "activity change": "inconclusive: -38.6%"}
{"smiles": "C[C@H](CO)N1C[C@H](C)[C@@H](CN(C)Cc2ccc(Cl)c(Cl)c2)Oc2c(NC(=O)Cc3ccccc3)cccc2C1=O", "activity change": "inconclusive: -37.3%"}
{"smiles": "O=C(O)/C=C/C(=O)NCCC(c1ccccc1)c1ccccc1", "activity change": "inconclusive: -49.4%"}
{"smiles": "Cc1cc(C(F)(F)F)n2nc(-c3cnn(C)c3C(F)(F)F)c(Cl)c2n1", "activity change": "inactive: 5.57%"}
{"smiles": "Cc1nc(NC(C)C)c2oc3ccccc3c2n1", "activity change": "inconclusive: -30.5%"}
{"smiles": "CCCCn1nc2cc(C(=O)NCc3ccc(OC)cc3)ccc2c1OCC", "activity change": "inconclusive: -36.1%"}
{"smiles": "COc1cccc2c1OC1(C)CC2NC(=O)N1Cc1ccccc1", "note": "(stereo not drawn)", "activity change": "inconclusive: -37.7%"}
{"smiles": "O=C(Cc1ccc(Cl)cc1)N/N=C/c1ccc(O)c(O)c1", "activity change": "inactive: 13.5%"}
{"smiles": "Cc1cc(C)c2c(=O)n(CC(=O)Nc3cccc(Cl)c3C)sc2n1", "activity change": "inactive: 2.93%"}
{"smiles": "Cc1cccc(C)c1-n1nnnc1C1(C)CCC(=O)N1Cc1ccco1", "note": "(stereo not drawn)", "activity change": "inactive: 13.6%"}
{"smiles": "Cc1cc(C)c2sc(N(CCCN(C)C)C(=O)c3ccc(S(=O)(=O)N4CCCc5ccccc54)cc3)nc2c1", "activity change": "active: -67%"}
{"smiles": "Cc1cccc(C(=O)NCCCNC(=O)c2ccco2)c1", "activity change": "inactive: 38.9%"}
{"smiles": "O=c1c2c3c(sc2n(CCN2CCOCC2)c(=O)n1Cc1ccco1)CCCCC3", "activity change": "inconclusive: -48.4%"}
{"smiles": "Nc1c(S(=O)(=O)c2cc(Cl)ccc2Cl)c2nc3ccccc3nc2n1CCN1CCOCC1", "activity change": "inconclusive: -36.7%"}
{"smiles": "CCNC(=S)N(CCCN(CC)CC)Cc1cc2cc3c(cc2[nH]c1=O)OCO3", "activity change": "inconclusive: -39.5%"}
{"smiles": "Cc1ccc2nc3c(cc(C(=O)NCc4ccccc4)c(=N)n3CCCn3ccnc3)c(=O)n2c1", "activity change": "inconclusive: -35.1%"}
{"smiles": "COc1ccc(C2Nc3ccccc3C(=O)N2Cc2ccco2)cc1COc1ccc([N+](=O)[O-])cc1", "note": "(stereo not drawn)", "activity change": "inconclusive: -35.9%"}
{"smiles": "CCN(C(=O)COc1ccc(C(C)=O)cc1)c1cccc2ccccc12", "activity change": "inconclusive: -38.1%"}
{"smiles": "COc1ccc(C(=O)NCc2nnc(SCC(=O)NO)n2Cc2ccccc2)cc1", "activity change": "inconclusive: -32.8%"}
{"smiles": "O=S(=O)(Nc1nc2ccccc2[nH]1)c1ccccc1", "activity change": "inconclusive: -31.7%"}
{"smiles": "CCOC(=O)NC(=O)/C(C#N)=C\\c1ccccc1", "activity change": "inactive: 3.54%"}
{"smiles": "Cc1ccc(-c2c(C)n([O-])c3c([n+]2=O)CCCC3)o1", "activity change": "inconclusive: -32.1%"}
{"smiles": "Cc1ccc(S(=O)(=O)Nc2ccccc2N2CCOCC2)cc1", "activity change": "inactive: 64.1%"}
{"smiles": "COc1ccc(CCC(=O)N/N=C/c2ccc3c(c2)OCO3)cc1", "activity change": "inactive: 5.2%"}
{"smiles": "Cc1ccc(SCC(=O)c2c(C)nc3ccccn23)cc1", "activity change": "inconclusive: -42.1%"}
{"smiles": "Cc1cccc(NC(=S)N(CCN(C)C)Cc2cc3cccc(C)c3[nH]c2=O)c1", "activity change": "inconclusive: -37.8%"}
{"smiles": "CCOC(=O)c1sc(Nc2nc(C)cc(OC)n2)nc1C", "activity change": "inactive: 72.4%"}
{"smiles": "OC(c1ccc(Cl)c(Cl)c1)c1ncc(-c2cccc(F)c2)[nH]1", "note": "(stereo not drawn)", "activity change": "inactive: -4.54%"}
{"smiles": "Cc1ccc(C(=O)Nc2ccc(CC(=O)O)cc2)o1", "activity change": "inconclusive: -31.1%"}
{"smiles": "CC(=O)NCCCc1c[nH]c2ccc(Cl)cc12", "activity change": "inactive: -13.5%"}
{"smiles": "CCOC(=O)/C(=N\\Nc1ccccc1)c1csc(Nc2ccc(C)cc2)n1", "activity change": "inconclusive: -38.6%"}
{"smiles": "O=C(CC(O)(C(F)(F)F)C(F)(F)F)Nc1ccc(Cl)c(Cl)c1", "activity change": "active: -71.8%"}
{"smiles": "COc1cc2c(cc1OC)C(C)N(C(=O)c1cc3ccccc3o1)CC2", "note": "(stereo not drawn)", "activity change": "active: -59.4%"}
